# Source: the BET-seq Pho4 binding data (Le et al. 2018)
# The list shows a part of the results. These are noisy estimates, calculated here from bound and input reads.
# Target: T1, Pho4 (S. cerevisiae) (UniProt P07270)
# T1 sequence: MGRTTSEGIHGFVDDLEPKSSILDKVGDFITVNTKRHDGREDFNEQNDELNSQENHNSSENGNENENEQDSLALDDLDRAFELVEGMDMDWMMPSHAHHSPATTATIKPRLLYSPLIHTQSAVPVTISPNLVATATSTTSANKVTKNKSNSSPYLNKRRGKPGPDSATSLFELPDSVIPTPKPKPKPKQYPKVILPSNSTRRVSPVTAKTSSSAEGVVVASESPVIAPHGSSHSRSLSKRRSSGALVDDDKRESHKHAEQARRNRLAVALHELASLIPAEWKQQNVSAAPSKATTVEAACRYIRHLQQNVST
# Assay: relative binding free energy (BET-seq); higher = weaker binding
# Settings: reference: library average
row,Sequence,relative binding free energy [kcal/mol]
1,CTGTACACGTGGGGAT,-0.01
2,TTTGGCACGTGACTGA,0
3,TTATGCACGTGTTTGG,-0.02
4,GTGTTCACGTGCAATT,0.24
5,GGTATCACGTGACAGT,0.24
6,ACTTGCACGTGTAATT,0.08
7,ATGATCACGTGTTGTG,0.18
8,TGGTACACGTGTCGTC,0.18
9,AGTAGCACGTGATTTA,-0.01
10,TTTGCCACGTGGGGCG,-0.26
11,AGCTTCACGTGTAAGG,0.34
12,TGGGTCACGTGTCCGA,0.19
13,GACTGCACGTGTAGGG,-0.05
14,ATTCTCACGTGTTTGT,0
15,GGCAGCACGTGCGGGG,-0.18
16,GTAAACACGTGTAGGT,0.15
17,CTGGACACGTGGTTGG,0.04
18,AGGCACACGTGGTAGT,0.04
19,CATAGCACGTGGGAGA,0.03
20,GTTTGCACGTGCTTTG,-0.06
21,CAAGGCACGTGTATTG,-0.03
22,CGGTGCACGTGGTAAG,-0.02
23,TAGAACACGTGGTCTG,0.08

row,Sequence,relative binding free energy [kcal/mol]
1,TATTTCACGTGTGGAA,0.36
2,AAGTGCACGTGCGTGA,-0.11
3,TTGCTCACGTGGGTTA,0.2
4,GTATACACGTGGGCTT,0.05
5,AGTTGCACGTGGTAAT,0.03
6,TATCCCACGTGTGGTT,0.07
7,TTTTGCACGTGAGCAG,0.15
8,TTGTTCACGTGCATAG,0.22
9,TGAGGCACGTGTGTCT,0.03
10,GGTCTCACGTGTGTAG,0.22
11,AGTTTCACGTGGTTTA,0.22
12,TTGCTCACGTGGGCTG,0.06
13,TTGTGCACGTGGTAAA,-0.02
14,TAAGTCACGTGATTAT,0.21
15,GTGTGCACGTGGGTAA,-0.12
16,AAAGGCACGTGAGGGC,0.14
17,TCGAGCACGTGAAGGT,0.29
18,GTAGGCACGTGAGGTT,0.23
19,GTAAGCACGTGGAGGT,0.16
20,TGGGGCACGTGCAAAT,-0.02
21,AGAGGCACGTGATTGT,0.02
22,TGGGACACGTGAGTGC,0.26
23,TTGGGCACGTGAAAGC,0.11

row,Sequence,relative binding free energy [kcal/mol]
1,GTACGCACGTGCTTGG,-0.02
2,AGGTTCACGTGCGGGT,0.25
3,GAGTACACGTGGATAT,0.34
4,GGTTCCACGTGTGCGT,0
5,GGGGACACGTGAGCAT,0.24
6,AAGTTCACGTGTTAAT,0.25
7,ATTATCACGTGCGATG,0.22
8,GAATGCACGTGTCGGG,0.12
9,AGTCTCACGTGGTACT,0.32
10,TTTTTCACGTGATAGG,0.47
11,ACTGGCACGTGGAGTG,-0.01
12,TGTGTCACGTGGGTCT,0.01
13,TTAGTCACGTGCGGTC,0.07
14,TTATACACGTGTAGTG,-0.07
15,TGGTCCACGTGATGAT,0.15
16,TCTTTCACGTGAGGTG,0.29
17,TTGATCACGTGTCGGC,0.19
18,AGCGACACGTGTTTGG,-0.11
19,GCGGGCACGTGGGAGT,-0.12
20,AAGGTCACGTGGCTAG,0.15
21,AAGTGCACGTGAGCGG,0.23
22,CTAATCACGTGAGGTG,0.29
23,GTTGACACGTGGGATT,-0.07

row,Sequence,relative binding free energy [kcal/mol]
1,TGAGACACGTGATAGG,0.1
2,TCGTACACGTGGTATG,0.05
3,CGGATCACGTGGTGTA,0.04
4,AGATGCACGTGGATGA,0
5,GTTATCACGTGTATGC,0.2
6,TTATTCACGTGGAGTC,0.35
7,TGAAACACGTGATTGT,0.12
8,GTTAGCACGTGGGAAG,-0.07
9,GTAGGCACGTGTCTGG,-0.16
10,GAGCGCACGTGGTGTG,-0.13
11,TTTATCACGTGATTAC,0.27
12,TCTTGCACGTGTGTTG,-0.04
13,AGTATCACGTGTTGGG,0.01
14,AGTGGCACGTGTATGG,-0.09
15,AGTATCACGTGAAGGA,0.43
16,CGGAGCACGTGGGTCG,-0.36
17,ATAATCACGTGTGGCA,0.15
18,TTTGACACGTGCGAGA,0.12
19,TTACACACGTGTAAGG,0.11
20,TTTAGCACGTGAATTG,0.26
21,GGTAGCACGTGCGGCA,-0.14
22,GGTATCACGTGAGGAG,0.44
23,CTTTACACGTGGGGTT,-0.08

row,Sequence,relative binding free energy [kcal/mol]
1,GACGGCACGTGGGAAG,-0.05
2,TGGGACACGTGCCGGG,-0.08
3,GGGAGCACGTGTTGTA,-0.01
4,AAAGTCACGTGCGGTA,0.05
5,TGTTACACGTGTTAAG,-0.07
6,CACGTCACGTGGTGTT,0.05
7,GCTGGCACGTGGTTTT,-0.1
8,TAAGTCACGTGGGAGG,-0.02
9,TGGTGCACGTGGACGC,-0.04
10,GGTTTCACGTGGCTAT,0.14
11,GTGGTCACGTGAGGAT,0.47
12,GTCGGCACGTGTCAGG,0.04
13,TTTAACACGTGTAAAT,0.07
14,GATGTCACGTGGTGTC,0.16
15,CGGAACACGTGGGAGT,-0.1
16,GTTGGCACGTGACGGT,0.11
17,GGGAGCACGTGCGGCT,-0.12
18,GATGGCACGTGGGCGA,-0.17
19,GGTTTCACGTGGGCGT,0.21
20,CAGGGCACGTGTTGTA,-0.15
21,GTTCGCACGTGGAGGG,-0.07
22,TTGCGCACGTGCTGGA,-0.14
23,GGAGGCACGTGGTCAA,-0.08
